Laboratory results reported in PMC4336329 (PLoS ONE, 2015).
Hit rate of the full screen: of about 310,000 compounds, about 14,000 (4.5%) showed an effect of 50% or more. The effect is printed as a negative number. The list shows a part of the results.

These compounds were tested against human ether-à-go-go-related gene (hERG) potassium channel (human, UniProt Q12809) (assay: primary screen, population patch clamp on CHO cells stably expressing hERG).
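Further: peak tail current of the secondary pulse compared with the same well before compound.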

Chain of human ether-à-go-go-related gene (hERG) potassium channel (Q12809 whole entry, looked up): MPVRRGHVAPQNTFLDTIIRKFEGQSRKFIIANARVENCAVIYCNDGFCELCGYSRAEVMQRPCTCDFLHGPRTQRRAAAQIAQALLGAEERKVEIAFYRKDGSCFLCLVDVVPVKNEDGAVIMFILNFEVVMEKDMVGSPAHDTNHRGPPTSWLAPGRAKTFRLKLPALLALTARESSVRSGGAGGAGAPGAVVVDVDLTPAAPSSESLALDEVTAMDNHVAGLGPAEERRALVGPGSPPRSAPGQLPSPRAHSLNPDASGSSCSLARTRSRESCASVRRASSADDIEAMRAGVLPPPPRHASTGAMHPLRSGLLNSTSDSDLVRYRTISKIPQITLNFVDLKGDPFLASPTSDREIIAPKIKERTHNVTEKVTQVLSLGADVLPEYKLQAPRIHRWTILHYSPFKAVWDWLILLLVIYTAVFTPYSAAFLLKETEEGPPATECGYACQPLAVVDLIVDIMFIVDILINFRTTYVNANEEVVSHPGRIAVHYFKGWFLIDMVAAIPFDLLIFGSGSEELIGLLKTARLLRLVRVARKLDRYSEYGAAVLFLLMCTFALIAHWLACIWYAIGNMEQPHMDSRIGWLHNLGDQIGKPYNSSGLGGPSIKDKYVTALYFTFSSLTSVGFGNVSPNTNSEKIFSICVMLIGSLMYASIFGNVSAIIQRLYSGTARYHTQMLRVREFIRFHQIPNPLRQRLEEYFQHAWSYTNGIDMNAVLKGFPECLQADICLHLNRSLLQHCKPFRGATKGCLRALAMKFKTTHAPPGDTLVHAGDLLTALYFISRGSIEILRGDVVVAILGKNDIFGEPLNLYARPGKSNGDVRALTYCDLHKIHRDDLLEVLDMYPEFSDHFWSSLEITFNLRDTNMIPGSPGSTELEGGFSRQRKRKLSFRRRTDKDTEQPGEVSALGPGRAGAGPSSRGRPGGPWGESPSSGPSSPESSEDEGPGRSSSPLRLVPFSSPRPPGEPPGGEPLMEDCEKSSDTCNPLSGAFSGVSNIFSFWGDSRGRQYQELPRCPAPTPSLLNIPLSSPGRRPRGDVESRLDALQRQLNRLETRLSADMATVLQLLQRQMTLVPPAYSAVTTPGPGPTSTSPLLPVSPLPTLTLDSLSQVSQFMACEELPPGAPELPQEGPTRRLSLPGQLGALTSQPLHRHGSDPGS

Row | SMILES | hERG current change (%, negative = inhibition) at 10uM [%]
1 | O=[N+]([O-])/C=C/c1c(OCc2ccccc2)ccc2ccccc12 | -1.12
2 | Cc1cc(=O)oc(C)c1C(=O)NCC(C)NC(=O)c1c(C)cc(=O)oc1C (stereo not drawn) | 5.83
3 | C=CCOC(=O)C1=C(C)Nc2nnnn2C1c1cccs1 (stereo not drawn) | -1.74
4 | CC(=O)c1cccc(NC(=O)C2=CC(c3ccco3)=NS(=O)(=O)N2C)c1 | 5.29
5 | CC(=O)NCCc1cc2cc(C)c(C)cc2[nH]c1=O | 10.6
6 | O=C(NCc1ccc(F)cc1)C1CCCN(S(=O)(=O)c2ccc(-n3cnnn3)cc2)C1 (stereo not drawn) | 19.3
7 | CN(c1ccccc1)c1nc(N)c([N+](=O)[O-])c(N2CCCCC2)n1 | -15.6
8 | Cc1n[nH]c(C)c1Sc1ccccc1[N+](=O)[O-] | -5.07
9 | CC(C)=CC[N+]1(C)CCCCC1.[Br-] | 13.5
10 | CCC(C)OC(=O)c1[nH]c2c(c1C)C(=O)CC(c1ccc(N(C)C)cc1)C2 (stereo not drawn) | 0.609
11 | CCC(C)NC(=O)C1CCN(S(=O)(=O)c2ccc3[nH]c(=O)ccc3c2)CC1 (stereo not drawn) | 5.87
12 | COc1ccc(-c2nnc(SCC(=O)N3CCOCC3)o2)cc1OC | -0.537
13 | Cc1ccc(S(=O)(=O)Nc2c(C)n(C)n(-c3ccccc3)c2=O)cc1C(=O)NCc1ccccn1 | 14.7
14 | COCCn1c(SCC(=O)Nc2ccccc2F)nc2c(c1=O)SCC2 | -12.3
15 | COc1ccc(C(=O)Nc2sc3c(c2C#N)CCN(C(C)=O)C3)cc1 | -21
16 | CCN(CC)CCCNC(=O)CSc1nc2c(c(C(F)(F)F)n1)CCc1ccccc1-2 | -52.2
17 | O=C(CN1C(=O)CCC1=O)Nc1ccc(Cc2ccc(NC(=O)CN3C(=O)CCC3=O)cc2)cc1 | 29
18 | COCCNC(=O)C(OC(=O)CC1Sc2ccccc2NC1=O)c1ccccc1 (stereo not drawn) | -5.27
19 | COc1ccc(/C=C/C(=O)NC2CCS(=O)(=O)C2)cc1 (stereo not drawn) | 10.5
20 | CCCNC(=O)Nc1cccc(C(=O)OC)c1 | -3.04
21 | CCOC(=O)N(CC)OC(=O)Nc1ccc(Cl)cc1 | -10.1
22 | COc1ccc(N2CCN(C(=O)c3ccc(Cl)c(S(=O)(=O)N4CCCC4)c3)CC2)cc1 | -31.6
23 | CN(Cc1nc2ccccc2c(=O)[nH]1)C(=O)c1cccc(S(=O)(=O)N2CCCCCC2)c1 | -26.1

Row | SMILES | hERG current change (%, negative = inhibition) at 10uM [%]
24 | CC1=C(C(=O)NCc2ccc3c(c2)OCO3)C2(CCC(C)CC2)OC1=O (stereo not drawn) | -17.8
25 | CCOC(=O)C1C(=O)CC(C)(O)C(C(=O)OCC)C1c1ccccc1 (stereo not drawn) | -13.1
26 | Cc1ccc(NC(=O)CN(C)S(=O)(=O)c2cccs2)cc1F | -2.2
27 | O=c1cc(-c2ccccc2)nc(Sc2ccc([N+](=O)[O-])cc2[N+](=O)[O-])[nH]1 | 17.3
28 | O=C(NCc1cccc(Cl)c1)c1ccc2c(c1)OCO2 | 0.973
29 | O=C(CCS(=O)(=O)c1ccc(Br)cc1)NCCC1=CCCCC1 | 9.16
30 | Cc1ccc(Cl)cc1N1CCN(CC(=O)NC2CCCc3ccccc32)CC1 (stereo not drawn) | 2.75
31 | CCCCCC1CC(CC(=O)Nc2nncs2)C(=O)O1 (stereo not drawn) | -8.91
32 | N#C/C(=C(/O)COC(=O)c1ccc(C#N)cc1)c1nc2ccccc2s1 | -1.4
33 | CC(C)CC(=O)NC(NC(=S)Nc1sc2c(c1C#N)CCCC2)C(Cl)(Cl)Cl (stereo not drawn) | 21.8
34 | COCCCNC(=O)c1ccc2c(c1)ncn2-c1ccccc1OC | -1.73
35 | CCOC(=O)C1=C(C)N(CCCCCC(=O)O)C(=O)NC1c1ccccc1Cl (stereo not drawn) | -11.1
36 | COc1ccc(CN2C(=O)N(c3ccc(OC)cc3)C(=O)C2CC(=O)Nc2ccccc2)cc1 (stereo not drawn) | 12.6
37 | COc1ccc(C2SCC(=O)N2c2ccc(F)cc2)cc1 (stereo not drawn) | 20.8
38 | CCCCC(C(=O)O)C(C)CC(=O)Nc1cccc(C(=O)O)c1 (stereo not drawn) | 8.68
39 | CCOc1ccc(S(=O)(=O)N2CCN(Cc3ccc4c(c3)OCO4)CC2)cc1C | -13
40 | CCCCOC(=O)c1ccc(NC(=O)c2cc(Cl)c(Cl)cc2C(=O)O)cc1 | 10.4
41 | COc1ccccc1CNC(=O)C1CCCN(S(=O)(=O)c2cccc3nonc23)C1 (stereo not drawn) | -5.13
42 | COc1ccccc1CNC(=O)c1c(-c2ccccc2Cl)noc1C | -4.95
43 | O=C(O)c1nc(-c2ccccc2)n(-c2cccc(C(F)(F)F)c2)n1 | 3.49
44 | Cc1ccc(C2=NC(C(F)(F)F)(C(F)(F)F)c3c(n(-c4ccc(F)cc4)c(=O)[nH]c3=O)N2)cc1 | -16.6
45 | Cc1cccc(C)c1NC(=S)NC(=O)c1ccccc1F | 0.697
46 | Cc1ccc(C(=O)Nc2cccc(-c3nc4ncccc4o3)c2)cc1 | 6.79

Row | SMILES | hERG current change (%, negative = inhibition) at 10uM [%]
47 | COc1cccc2cc(-c3cc(=O)oc4ccc(O)cc34)oc12 | 6.22
48 | COC(=O)Cc1nnc(Nc2cccc(C)c2)c2ccccc12 | -6.22
49 | CN1CCN(NC(=O)Nc2ccc(Br)cc2)CC1 | -20.6
50 | COC(=O)C(Cc1ccc(OC(=O)c2ccc(C)cc2)cc1)N1Cc2ccccc2C1=O (stereo not drawn) | -9.91
51 | Nc1ncn(C(=O)c2ccco2)n1 | 14.5
52 | O=C(CCNC(=O)c1ccc(Br)cc1)NCc1ccncc1 | -13.8
53 | Cc1noc(C(=O)Nc2cccnc2)c1Cl | 20.2
54 | O=C(Cc1noc2ccccc12)Nc1ccc(Cl)cc1 | -10.8
55 | CCc1ccc(NC(=O)Cn2cnc3sc(C)c(S(=O)(=O)N4CCOCC4)c3c2=O)cc1 | -21.5
56 | CCC(C)(C)C1CCC(=NNC(=S)Nc2ccccc2)CC1 (stereo not drawn) | 11.4
57 | Cc1ccc(NC(=O)c2oc3ccccc3c2C)c([N+](=O)[O-])c1 | 12.9
58 | CC1CCCC(NC(=O)c2cccs2)C1C (stereo not drawn) | 11.1
59 | O=C(NCCO)C(=O)NCC1OCCCN1S(=O)(=O)c1cccs1 (stereo not drawn) | -26.7
60 | COc1ccccc1CNC(=O)Cc1ccc(OC)c(OC)c1 | 13
61 | O=C(COC(=O)c1ccccc1C(=O)c1ccc(Cl)cc1)NC(c1ccccc1)c1ccccc1 | 24.1
62 | O=C(CNC(=S)N(Cc1ccc(F)cc1)C1CCCCC1)NC1CC1 | -37.2
63 | Cc1nn(CC(=O)NCCc2ccccc2)c(C)c1[N+](=O)[O-] | -0.47
64 | CCNC(=S)N/N=C(\C)c1cccc([N+](=O)[O-])c1 | -45.9
65 | CCCSc1nc2cc(OC)c(OC)cc2c(=N)n1CCCN1CCOCC1 | -74.6
66 | O=C(COC(=O)C(Cc1ccccc1)NC(=O)c1cccs1)NCc1ccccc1 (stereo not drawn) | -2.93
67 | COc1ccc(CNC(=O)Nc2ccccc2)cc1 | -18.9
68 | N#C/C(=C\c1c[nH]c2ccccc12)C(N)=O | 10.4
69 | Nc1ccccc1SC/C=C/CSc1ccccc1N | 10.8

Row | SMILES | hERG current change (%, negative = inhibition) at 10uM [%]
70 | CCCn1c(O)c(N=NC(=O)CNC(=O)c2cccnc2)c2ccccc21 | -13.9
71 | COCCN(CC1CCCN(C2Cc3ccccc3C2)C1)C(=O)CCC(C)=O (stereo not drawn) | -6.4
72 | O=C(Nc1scc(-c2ccccc2)c1C(=O)O)c1ccccc1Cl | 1.18
73 | Cc1nnc(SCC(=O)N2c3ccccc3Sc3ccccc32)n1N | 7.29
74 | Cc1cccc(OCc2nc(C#N)c(NCCN(C)C)o2)c1 | -32.8
75 | CCC(CC)C(=O)N(c1ccc(F)cc1)C1C=CS(=O)(=O)C1 (stereo not drawn) | -3.34
76 | O=C(OCc1ccc([N+](=O)[O-])cc1Cl)c1cnccn1 | 13.7
77 | Cc1cccc(-c2nc(C#N)c(NC3CCCCC3)o2)c1 | 3.76
78 | O=C(Nc1nccs1)c1ccc(COc2c(F)c(F)cc(F)c2F)o1 | 1.26
79 | CCCCc1cc(=O)oc2c(C)c(OCC(=O)N3CCC(C(N)=O)CC3)ccc12 | -16.7
80 | CC1CN(S(=O)(=O)c2cccc(C(=O)N(C)C3CCN(C)CC3)c2)CC(C)O1.Cl (stereo not drawn) | -3.74
81 | O=C(CCc1ccccc1)NCC(=O)N/N=C/c1ccc(O)cc1O | -8.41
82 | COc1ccc(CNC(=O)CSc2nnc(Cn3nnc4ccccc43)n2C)cc1 | 3.8
83 | COc1cccc(CC(=O)Nc2nc(-c3cc(OC)ccc3OC)cs2)c1 | 4.24
84 | CCOC(=O)C1CCCN(C(=O)C2CCN(C(=O)Nc3ccccc3)CC2)C1 (stereo not drawn) | 7.92
85 | COc1cccc2cc(C(=O)OCc3ccccc3)c(=O)oc12 | 6.63
86 | CC(=O)N1CCOCCOCCN(C(C)=O)CCOCCOCC1 | 31.6
87 | C=CCSc1nc2sc3c(c2c(=O)n1CC)CCc1ccccc1-3 | 15.3
88 | CC(C)(C)c1cn(-c2ccc(Cl)cc2)c(=S)[nH]1 | 4.22
89 | CCOC(=O)/C(C#N)=C/NC(=O)NC(C)(C)C | 4.11
90 | CCC(C)Cn1c(S(=O)(=O)O)nc2ccccc21 (stereo not drawn) | 13
